# Hit rate of the full screen: of about 360,000 compounds, about 520 (0.14%) were called active. The inconclusive results got no clear call from the source; some entries with a clear call stand among them for comparison. Calls come from the whole dose curve; as a rule, active = well fitted inhibition curve with a large enough effect; inconclusive = small, poorly fitted or top-dose-only effect; inactive = no such curve, though single readings can be large or run the other way. No potency is given beside an inconclusive call; the fits are too rough.
# Target: Rap guanine nucleotide exchange factor 3 (Homo sapiens) (UniProt O95398)
# Chain of UniProt O95398 (O95398 whole entry, looked up): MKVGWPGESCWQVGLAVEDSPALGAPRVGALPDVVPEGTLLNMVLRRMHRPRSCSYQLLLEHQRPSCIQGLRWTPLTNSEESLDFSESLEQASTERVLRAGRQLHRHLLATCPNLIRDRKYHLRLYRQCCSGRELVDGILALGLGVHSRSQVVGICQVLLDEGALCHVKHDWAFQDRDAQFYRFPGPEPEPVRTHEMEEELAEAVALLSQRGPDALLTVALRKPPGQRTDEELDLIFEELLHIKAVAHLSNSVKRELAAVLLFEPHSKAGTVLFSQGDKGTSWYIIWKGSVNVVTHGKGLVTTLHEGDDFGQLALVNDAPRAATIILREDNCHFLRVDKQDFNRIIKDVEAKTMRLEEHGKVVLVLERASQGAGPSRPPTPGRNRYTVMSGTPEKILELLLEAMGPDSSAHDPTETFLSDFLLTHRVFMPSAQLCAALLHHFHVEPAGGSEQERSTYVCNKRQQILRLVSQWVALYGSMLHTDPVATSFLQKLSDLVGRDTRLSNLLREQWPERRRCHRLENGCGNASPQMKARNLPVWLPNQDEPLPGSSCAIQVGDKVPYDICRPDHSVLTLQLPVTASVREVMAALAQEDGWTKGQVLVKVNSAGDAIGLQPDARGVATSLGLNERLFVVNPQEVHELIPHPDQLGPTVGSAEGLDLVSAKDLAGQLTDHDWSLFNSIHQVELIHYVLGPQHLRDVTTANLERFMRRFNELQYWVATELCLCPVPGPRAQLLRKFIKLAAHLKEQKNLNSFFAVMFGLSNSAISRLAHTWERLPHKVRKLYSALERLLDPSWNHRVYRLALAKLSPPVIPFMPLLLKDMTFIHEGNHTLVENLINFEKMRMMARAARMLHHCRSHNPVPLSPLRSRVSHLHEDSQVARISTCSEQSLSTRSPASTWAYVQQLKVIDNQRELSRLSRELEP
# Test: qHTS for Antagonist of cAMP-regulated guanine nucleotide exchange factor 3 (EPAC1): primary screen; note: nearly all actives have a fitted effect of over 50% in size;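 for activity change, negative = inhibition: plate controls were vehicle for no effect and positive control for full effect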
# Conditions: EPAC1 GEF assay, Rap1b-BODIPY-GDP exchange fluorescence; activity change, negative = inhibition: at 115 µM (top of the series)
# Potency is the fitted concentration of half-maximal effect; tags give direction and shape of the fitted curve.
Structure (SMILES),Potency,"activity change, negative = inhibition"
O=C(COC(=O)c1ccc([N+](=O)[O-])s1)NCCc1ccccc1,"inconclusive [inhibitor, partial curve]",–
COc1ccc(C(=O)NCCN2CCOCC2)c(OC)c1OC,"inconclusive [inhibitor, partial curve, poor fit]",–
C[n+]1cn(/N=C/c2ccccc2)c2ccccc21,"inconclusive [inhibitor, single point]",–
O=C1C(O)=C(O)C(=O)c2ccccc21,"inconclusive [inhibitor, full curve]",–
Cc1cccc2c1cnn2C(=O)CCC(=O)NCc1ccc(F)cc1,"inconclusive [inhibitor, single point]",–
COc1ccc(-n2c(Cc3cccn3C)nnc2SCC(=O)Nc2ccccc2F)cc1,"inconclusive [inhibitor, partial curve]",–
CCCCCCCC/C=C\CCCCCCCC(=O)NCCc1ccc(O)c(O)c1,"inconclusive [inhibitor, partial curve]",–
O=C(c1cccs1)N1CCN(Cc2ccccc2)CC1,–,inactive: -9.07%
COc1ccc(C)cc1NC(=O)C(OC(=O)c1cccc(S(=O)(=O)N(C)c2ccccc2)c1)c1ccccc1 (configuration not stated),"inconclusive [inhibitor, partial curve]",–
C[C@@H]1CN([C@@H](C)CO)C(=O)CCCn2nncc2CO[C@H]1CN(C)S(=O)(=O)c1ccc2ccccc2c1,–,inactive: -27.3%
CCc1ccc(CNc2ccc3c(c2)ncn3CC)cc1,"inconclusive [inhibitor, single point]",–
N#Cc1c(NC(=O)C2CC=CCC2C(=O)O)sc2c1CCCCCC2 (configuration not stated),active: 79.4 µM,–
O=C(Nn1c(C2CCCCC2)nc2ccccc2c1=O)c1ccc(Cl)c([N+](=O)[O-])c1,"inconclusive [inhibitor, single point]",–
O=C(c1ccc2c(c1)N(Cc1ccccc1F)C(=O)c1ccccc1S2)N1CCOCC1,–,inactive: -2.81%
COc1cccc(NC(=S)N(CCc2ccc(OC)c(OC)c2)Cc2ccccn2)c1,"inconclusive [inhibitor, full curve, poor fit]",–
O=C(C=P(c1ccccc1)(c1ccccc1)c1ccccc1)c1ccccc1-c1ccccc1C(=O)C=P(c1ccccc1)(c1ccccc1)c1ccccc1,"inconclusive [inhibitor, full curve]",–
CCCCNS(=O)(=O)c1ccc2nc(SCC(=O)Nc3ccccc3)[nH]c2c1,"inconclusive [inhibitor, partial curve]",–
S=C(Nc1cccnc1)N1CCc2ccccc21,"inconclusive [inhibitor, partial curve]",–
CCCCCCNc1nc(NCc2ccco2)nc(OCC)n1,"inconclusive [inhibitor, partial curve]",–
O=C(COC(=O)c1ccc(Cl)nc1)NCCc1ccc(F)cc1,–,inactive: -16.4%
C[n+]1ccc(/C=N/Nc2nc(Cl)c(C#N)c(Cl)c2Cl)cc1,–,inactive: -16.1%
C/C(=N\NC(=O)c1cc2c(s1)CCC(C)C2)c1ccc[nH]1 (configuration not stated),–,inactive: -22%
CCCN1C(=O)/C(=C\C=C2\N(CC)c3ccccc3C2(C)C)SC1=S,–,inactive: -8.67%

Structure (SMILES),Potency,"activity change, negative = inhibition"
CCn1c(/C=C/c2ccc(O)c(O)c2)nc2ccccc2c1=O,"inconclusive [inhibitor, partial curve]",–
CCOc1ccc(N(Cc2cc3ccc(C)cc3[nH]c2=O)S(=O)(=O)c2ccccc2)cc1,"inconclusive [inhibitor, partial curve, poor fit]",–
Cc1ccc(NC(=O)CSc2nnc(CNC(=O)c3ccccc3F)o2)cc1Cl,"inconclusive [inhibitor, full curve, poor fit]",–
O=C(Cc1ccc(F)cc1)Nc1c(C(=O)N2CCN(c3ncccn3)CC2)oc2ccccc12,"inconclusive [inhibitor, single point]",–
O=C1c2ccccc2C(=O)c2[nH]cnc21,–,inactive: -9.69%
O=C(C[C@@H]1CC[C@@H]2[C@H](COC[C@H](O)CN2CCC(F)(F)F)O1)NCc1ccc2c(c1)OCO2,–,inactive: 2.52%
CN(C)CCCN(C(=O)c1ccc(S(=O)(=O)N(C)Cc2ccccc2)cc1)c1nc2c(F)cccc2s1,"inconclusive [inhibitor, single point]",–
CCOC(=O)C1CCCN(C(=O)c2cn(CC)c3ccc(S(=O)(=O)N(C)C)cc3c2=O)C1 (configuration not stated),"inconclusive [inhibitor, single point]",–
CC1CC(=O)c2cnc(N)nc2C1 (configuration not stated),–,inactive: 0%
COC(=O)c1ccc(COC(=O)c2ccc(SC)cc2OC)cc1,–,inactive: -6.38%
C=CCN(c1ccccc1)S(=O)(=O)c1cccc(C(=O)NNC(=O)c2ccccc2O)c1,"inconclusive [inhibitor, partial curve]",–
CCN1C(=O)[C@H]2[C@@H](c3ccc(-c4ccc(Cl)c(Cl)c4)c(OC)c3)N[C@@](C)(C(=O)OC)[C@H]2C1=O,–,inactive: -7.68%
CCOc1ccc(S(=O)(=O)N(C)c2ccc(OCC(=O)Nc3nc4ccccc4s3)cc2)cc1,"inconclusive [inhibitor, single point]",–
Cn1c(=O)c2c(nc(Cc3ccccc3)n2C)n(C)c1=O,"inconclusive [inhibitor, single point]",–
CC1=C(C(=O)Nc2ccc([N+](=O)[O-])cc2)C(c2cccc(C(F)(F)F)c2)NC(=S)N1c1ccccc1 (configuration not stated),"inconclusive [inhibitor, partial curve]",–
O=C(O)CN1C(=O)/C(=C\C(Br)=C\c2ccccc2)SC1=S,"inconclusive [inhibitor, partial curve]",–
O=C1NC(c2cccc3ccccc23)Nc2ccccc21 (configuration not stated),–,inactive: 3.2%
C=CCOc1ccc(/C=N/NC(C)=O)cc1OCC,"inconclusive [inhibitor, single point]",–
CCOc1ccc(CN(C(=O)c2oc3cc(C)ccc3c2C)C2CCS(=O)(=O)C2)cc1 (configuration not stated),"inconclusive [inhibitor, partial curve]",–
CC1=C(C(=O)OC(C)C)C(c2ccc(Br)s2)NC(=O)N1C (configuration not stated),"inconclusive [inhibitor, partial curve, poor fit]",–
COc1cc(/C=C(\C#N)c2nc3ccc(C)cc3[nH]2)c([N+](=O)[O-])cc1OC,–,inactive: -18.5%
O=C(O)CN1C(=O)/C(=C\c2cccc(OCc3ccccc3F)c2)SC1=S,"inconclusive [inhibitor, partial curve]",–
CCc1nc2ccc(C(=O)NCCc3ccccn3)cn2c1N(C)CCC(C)C,–,inactive: -14.2%

Structure (SMILES),Potency,"activity change, negative = inhibition"
COc1ccc(N2CCN(Cc3nc4scc(-c5ccccc5)c4c(=O)[nH]3)CC2)cc1,"inconclusive [inhibitor, full curve]",–
Cc1ccc(NC(=O)CSCC#N)cc1Cl,"inconclusive [inhibitor, full curve]",–
CC(=O)c1cc(C)ccc1OC(=O)c1ccncc1,"inconclusive [inhibitor, full curve, poor fit]",–
Cc1nc(-c2cccc(NC(=O)Cc3ccccc3)c2)cs1,"inconclusive [inhibitor, partial curve]",–
CN(C)c1ccc(N=C/C=C2\N(C)c3ccccc3C2(C)C)cc1,–,inactive: 0.125%
O=C(CCc1nc2ccccc2s1)OCC(=O)N1CCN(C(=O)c2ccco2)CC1,–,inconclusive: -14.6% [inhibitor]
O=C1C=CC(=O)N1c1ccccc1N1C(=O)C=CC1=O,"inconclusive [inhibitor, partial curve]",–
CCCn1c(-c2cc(OC)c(OC)c(OC)c2)nc2nc3ccccc3nc21,–,inactive: -3.78%
CC(C)(C)c1ccc(COn2ccnc2)cc1,"inconclusive [inhibitor, partial curve, poor fit]",–
Cc1cc(OCC(=O)Nc2c(C(C)C)cccc2C(C)C)no1,"inconclusive [inhibitor, single point]",–
Cn1c(SCC(=O)c2ccc3c(c2)OCO3)nnc1-c1ccccn1,"inconclusive [inhibitor, single point]",–
COc1ccccc1CN(C)C(=O)c1ccc(COc2ccccc2)cc1,"inconclusive [inhibitor, full curve, poor fit]",–
COc1ccc(/C=C2\SC(=S)N(CCC(=O)Nc3ccc(C(=O)O)cc3)C2=O)cc1,"inconclusive [inhibitor, single point]",–
CC[n+]1c(/C=C/N(C)c2ccccc2)n(-c2ccccc2)c2ccc(-c3nc4ccccc4s3)cc21,–,inactive: -17.8%
COc1ccc(/C=C/C(=O)Nc2ccc(NC(C)=O)cc2)cc1S(=O)(=O)N1CCOCC1,"inconclusive [inhibitor, single point]",–
N#Cc1c(SCC(=O)Nc2nccs2)sc2c(O)cc(=O)[nH]c12,"inconclusive [inhibitor, full curve, poor fit]",–
CC1(C)Cc2cccc(OCC(=O)NCc3cccs3)c2O1,"inconclusive [inhibitor, single point]",–
Cc1ccc(-c2nnc(Nc3ccc(OCC(N)=O)cc3)c3ccccc23)cc1S(N)(=O)=O,"inconclusive [inhibitor, partial curve]",–
Cn1c(CCc2ccccc2)n[nH]c1=S,"inconclusive [inhibitor, single point]",–
O=C(NCCNC(=O)c1ccco1)c1ccco1,"inconclusive [inhibitor, single point]",–
CC(=O)C1=C(C)NC(SCc2cccc([N+](=O)[O-])c2)=C(C#N)C1c1ccco1 (configuration not stated),"inconclusive [inhibitor, single point]",–
